In publication PMC9338292:
These are yes or no findings as the source states them, for the method shown. In cells and extracts the contact can be indirect. Some entries that bind do so weakly or less than the wild type. For some of these results: Where a sequence is shown, tags or fusion partners need not be part of it.

Chains of the proteins cited; added tags and fusions are not shown.
UniProt P50750: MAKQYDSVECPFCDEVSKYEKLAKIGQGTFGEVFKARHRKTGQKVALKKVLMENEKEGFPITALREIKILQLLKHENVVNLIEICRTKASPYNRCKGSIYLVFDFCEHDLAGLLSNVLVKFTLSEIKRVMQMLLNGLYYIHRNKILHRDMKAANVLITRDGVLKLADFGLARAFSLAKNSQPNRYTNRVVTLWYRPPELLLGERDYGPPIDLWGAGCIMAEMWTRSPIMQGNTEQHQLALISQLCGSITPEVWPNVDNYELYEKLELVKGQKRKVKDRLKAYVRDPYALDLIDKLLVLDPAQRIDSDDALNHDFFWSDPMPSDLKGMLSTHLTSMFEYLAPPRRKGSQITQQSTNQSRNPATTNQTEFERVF
UniProt O94992: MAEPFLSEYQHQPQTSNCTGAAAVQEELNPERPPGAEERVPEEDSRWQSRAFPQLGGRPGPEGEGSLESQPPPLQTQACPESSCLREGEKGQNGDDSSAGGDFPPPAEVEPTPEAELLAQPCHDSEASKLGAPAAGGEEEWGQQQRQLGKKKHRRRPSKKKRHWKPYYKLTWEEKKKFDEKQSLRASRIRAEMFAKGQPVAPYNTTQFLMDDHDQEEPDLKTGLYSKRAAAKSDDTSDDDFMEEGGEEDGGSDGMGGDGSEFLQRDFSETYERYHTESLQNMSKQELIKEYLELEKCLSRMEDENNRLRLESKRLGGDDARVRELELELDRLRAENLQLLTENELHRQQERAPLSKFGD

Key:
[1] = molecular target: HA-tagged CDK9 (UniProt P50750); assay: co-IP; anti-HA antibody on Protein G magnetic beads, nuclear lysate of undifferentiated keratinocytes expressing HA-CDK9, treated with KL (SEC peptidomimetic inhibitor) for 3 hours; western blot for HA and HEXIM1
[2] = molecular target: T1, HA-tagged AFF1 (UniProt P51825); assay: co-IP; anti-HA antibody on Protein G magnetic beads, nuclear lysate of keratinocytes expressing HA-AFF1, overnight 4 °C, 150 mM NaCl, 50 mM Tris pH 7.5, NP-40; undifferentiated (progenitor) state; for CDK9 and P-CDK9 also the differentiated state; western blot
T1 sequence: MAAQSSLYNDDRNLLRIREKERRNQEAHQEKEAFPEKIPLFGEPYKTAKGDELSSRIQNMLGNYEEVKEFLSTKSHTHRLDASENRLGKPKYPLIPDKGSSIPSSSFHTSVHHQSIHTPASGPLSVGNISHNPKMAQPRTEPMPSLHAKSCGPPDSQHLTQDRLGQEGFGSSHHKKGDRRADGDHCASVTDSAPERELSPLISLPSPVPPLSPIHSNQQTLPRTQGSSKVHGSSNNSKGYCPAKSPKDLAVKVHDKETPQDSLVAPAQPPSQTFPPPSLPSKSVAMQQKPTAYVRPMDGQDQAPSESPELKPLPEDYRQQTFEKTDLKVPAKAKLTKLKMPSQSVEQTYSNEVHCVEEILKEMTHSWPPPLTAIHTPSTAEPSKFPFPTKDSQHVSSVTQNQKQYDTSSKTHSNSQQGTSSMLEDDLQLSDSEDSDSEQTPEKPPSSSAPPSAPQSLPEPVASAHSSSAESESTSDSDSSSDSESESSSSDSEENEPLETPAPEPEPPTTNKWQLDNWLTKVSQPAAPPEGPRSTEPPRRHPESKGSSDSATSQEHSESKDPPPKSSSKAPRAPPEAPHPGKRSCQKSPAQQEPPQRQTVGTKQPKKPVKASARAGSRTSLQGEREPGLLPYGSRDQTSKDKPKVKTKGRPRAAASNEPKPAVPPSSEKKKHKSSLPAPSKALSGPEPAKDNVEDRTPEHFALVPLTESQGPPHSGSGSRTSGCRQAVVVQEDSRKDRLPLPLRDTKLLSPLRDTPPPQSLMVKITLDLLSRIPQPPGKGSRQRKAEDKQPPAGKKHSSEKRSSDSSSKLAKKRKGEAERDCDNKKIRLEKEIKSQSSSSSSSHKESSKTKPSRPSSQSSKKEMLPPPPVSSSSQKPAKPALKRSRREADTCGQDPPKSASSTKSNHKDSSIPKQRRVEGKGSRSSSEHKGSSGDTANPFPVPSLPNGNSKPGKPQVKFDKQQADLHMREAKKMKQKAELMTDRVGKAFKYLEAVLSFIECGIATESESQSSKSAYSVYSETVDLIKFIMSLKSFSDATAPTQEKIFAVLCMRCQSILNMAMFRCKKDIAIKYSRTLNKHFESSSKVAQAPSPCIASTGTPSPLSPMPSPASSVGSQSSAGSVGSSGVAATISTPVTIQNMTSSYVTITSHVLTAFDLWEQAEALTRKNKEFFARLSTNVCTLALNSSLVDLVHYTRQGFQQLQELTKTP

[3] = molecular target: HA-tagged CDK9 (UniProt P50750); assay: co-IP; anti-HA antibody on Protein G magnetic beads, nuclear lysate of undifferentiated keratinocytes expressing HA-CDK9, treated with DMSO as control; western blot for HA and HEXIM1
[4] = molecular target: HA-tagged CDK9 (UniProt P50750); assay: co-IP; anti-HA antibody on Protein G magnetic beads, nuclear lysate of undifferentiated keratinocytes expressing HA-CDK9, treated with TPA (PKC activator) for 1 hour; western blot for HA and HEXIM1
[5] = molecular target: T1, HA-tagged AFF1; assay: condition: only keratinocytes in the differentiated state; co-IP; anti-HA antibody on Protein G magnetic beads, nuclear lysate of keratinocytes expressing HA-AFF1 in the differentiated state (100% confluency, 1.2 mM CaCl2, four days); western blot

In the case of HEXIM1 (from UniProt O94992 1-359), the binding [1] is reported as “no binding (condition: cells treated with KL for 3 hours)”, the binding [2] is reported as “binds” and the binding [3] is reported as “binds”. For the same substance, the binding [4] was “no binding (condition: cells treated with TPA for 1 hour)” and the binding [5] was “no binding”.

In the case of “CDK9 (from UniProt P50750 1-372) (enzyme)”, the binding [2] is reported as “binds”.

In the case of “P-CDK9 (phosphorylated threonine 186) (from UniProt P50750 1-372) (enzyme)”, the binding [2] is reported as “binds”.
